Measured values as given in paper PMC10726135.
Some of the results follow. At the low end of the ranking the order means little. The protein was read in a cell extract, so binding may be indirect.

Biological target: T1, HNF4alpha8 (COS-7 nuclear extract) (UniProt P41235-5)
T1 sequence: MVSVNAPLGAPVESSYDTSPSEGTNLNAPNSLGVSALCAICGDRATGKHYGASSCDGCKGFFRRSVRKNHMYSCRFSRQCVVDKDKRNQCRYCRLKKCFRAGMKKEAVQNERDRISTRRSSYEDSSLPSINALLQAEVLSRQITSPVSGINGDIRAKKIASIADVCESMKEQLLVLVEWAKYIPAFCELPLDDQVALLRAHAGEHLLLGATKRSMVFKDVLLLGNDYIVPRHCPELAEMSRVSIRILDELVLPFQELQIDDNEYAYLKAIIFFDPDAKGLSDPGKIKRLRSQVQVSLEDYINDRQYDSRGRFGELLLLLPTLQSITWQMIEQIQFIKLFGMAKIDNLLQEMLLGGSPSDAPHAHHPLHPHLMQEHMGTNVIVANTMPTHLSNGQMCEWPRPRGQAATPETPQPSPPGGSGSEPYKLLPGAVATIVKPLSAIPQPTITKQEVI
Assay: protein-binding microarray
Settings: COS-7 nuclear extract on double-stranded Agilent 4x180k PBM; binding buffer, salt, pH and temperature not given; high values mean tight binding; double strand, one strand shown; sequences stand for … in …GCCTAGGGAGATTAGAGTATCGGTCGA

Sequence	binding signal (log2 normalized intensity)
AAGGCTGTCACACTGGCCTTTGCCCTCGCT	5.82
ATTAGTCTCTGCTGGCTTTCCACTCAGGCT	-1.2
ACAGGGGCCCAAGATAAAGGGACAGGGGTC	2.44
GAGAGGCTTATGCATGGGAGATCTTCAGTA	-0.357
GCAACAGGAAACAGCCTGTGTTCTCTCAAC	-1.27
AGCTCTTTCCATTTTTGCTCCTGCACTTTT	2.4
GAAAGACGAAAGGGACTTTGATCTTCTTAC	6.37
AGGAGCCAAAGTCCTTCCCAAGTCCTGCAT	2.41
GCAGGTGGCTACATGATGTCAGTTTGACTC	1.31
GTGGTCTTTATGACTTGGGTGCACCAATGA	1.94
AAAATAGTTTCAACTTAACCCCAGTTTAGC	2.42
CCCCTTGCTGAGTGGAAAAACACCTGGTTC	-0.272
TCCACAGTCAAGGCCAAAGGTTAAAAATAA	4.8
TGATCCATTCTACCCCTGTGGTTGACCTTT	8.51
GCCCACAATTGCATGTTCAACAGACAGCTG	-1.31
CCTGGATGCCAGGCAAGAGCTCAGAAGCCA	-1.38
GGGATCAGCAATGCTCAGCCCACCTTTTGG	-1.39
TGTGGGTAATTAATCTGATCGCCCTCCCCC	5.29
AGAGCACAACCTTTGGCCGTGCATGCTTGG	2.95
GAGCCCACAGTCCAGTACCATTTCCTGGTC	0.216
TGTGGCTAACAATATGGGGTGGGGAAGAAG	-1.3
GAGAGGTCAATGTCCAGTTCCGCTGCAGTT	4.53
TCCAAATTCCTTGGAATACATGGAATGCTC	0.442
AGCCCAAGAAGCGTCAGTTGCCTCGCCAGA	-1.26

Sequence	binding signal (log2 normalized intensity)
GGGCTCCCACCAGGGGGAGGCTCAGAGTCT	-1.34
ACATGAGCTAGTGCTAAAGGTCATATCCAA	4.49
CACAAGCAATGGCTGGGTCTAAGGGCAAGT	1.18
TGCCCCAGTCCTTCAGTCCTTCCCCCGCCA	5.33
ATTGGACTCTCTCATTCTGATATGCACTGT	2.06
TCTGTCTTCGGGCGGCGGCCTCTGGGAAAT	-0.905
AGTAATGTGATTTAATTCTGAGTTCCAATA	0.268
GAAGTGATCCTTATCAGTGTGAGCTACAAG	0.348
TATTAATGAGGCAAAGGTCAGGAGTTCCAT	3.8
CCAGTAGAGAAACAAATCTGCTTTCTACCC	-0.982
TGACTACCAGGTTCTGTACTTTGGAACCTG	7.01
AGCCTGACCATCACCACTTCAAGCTTGGTA	-1.34
GTGTTTCTTGTTTCAGAGTAAATACGAACC	1.46
GACCCTCTGCCCCCTACACAGAGGAGCGAC	4.18
GGGATCCGGCCTTCCCGGGTGGACGTCCCC	0.694
TTCCTGTAAATAATTAAGACCAAACTGCTG	-1.23
TGGCACTGAAGAATGTCTAAATCTGAAGGA	-0.983
CTAGATGGCTGTGACTACTTCCGGACATGG	0.249
AAGTCTTAGTTTCCTTATCTGTAAAATGGA	1.73
TGGCATGCAGCAGGGGAATGGAGACACACC	-1.21
TTCCCGGCCTGGCCACTCCGTTTGCTATGG	-1.26
GACAAAATGCCCAGGATTCCTTTTTCACTG	-1.35
AAGATTAGCTCACAGGAAAGGAGACTAAAG	-1.3
ATGAGAACTTCTTCCAATGAAAGGTTAACC	2.08

Sequence	binding signal (log2 normalized intensity)
ATCTGAATGTATGGGCTATTTATGACGGTG	1.06
CCCGTGTCTCCCTACCTCTGCACAGCTCCA	-1.2
CAAACACAAAAAGCGGACAAACCAGTCCCA	-1.37
CTTTGAGATTTGCATTCATGATCTTAGATA	0.242
CAGACAGGCATGACAGAGTGTCCTGCCCCC	5.11
AACTTCGGGAATCTGACCTTTGGGACATTC	6.32
TCCCTAAGATTTATCCCAAATGTTTGCACT	1.34
CATGTTAATTTAAATAACAAGGATAGCGTC	-1.21
TGCAACATTAAAACAACCCAGAGAATGCTA	-1.33
TCCCTGGGTACAACTTTATCTAAGGGTTTC	1.13
TGAGTGTGTTTCTTGTTTCAGAGTAAATAC	1.35
GAGATTTCAGCCGCTTTGAGGTCAATGGTA	2.54
ATATTTGTCTTCCTATCTCCTTACTCTTTG	0.624
AAGACCAAACTGCTGAAGATAAGACTTCCT	-1.23
GCCAGCAAGGACTTTGAAGGCCCCAATTGC	0.264
GTTTGTCAAGCTCAATGCAACCAGTTGGTG	0.473
ATCAAAGGTCACTTTACAGATAAAGAAACC	2.91
ACAGAGTAAAGCCACTGCCTAGATAAAAGG	-1.35
CTTTGCCCAACCCTCTCCCACTCCCCTCCT	4.85
GGAATCTGAACTTTTGGCTCCCTGGGGTTA	2.05
CCTCCCGGAGGACCCGACCGGAGAGGGCGA	-1.08
AAGGGTTCAGGGCAGAAGAGGTTATCACAG	0.0363
ATGATATGGTCAGTGTTGATAAGAAAGCTG	0.0521
AAGGCTGCTGCCTGAAAGGCCAAGCCAGTT	-1.28

Sequence	binding signal (log2 normalized intensity)
CCCTTCCTGCTTCCAGGCTTGTACCTTGAC	3.23
CCCTAGTGACTCTAGGAACCTTTCTCCATA	-1.32
ATAAGGAGGGTAACAATGCTGATGGGGACC	-1.32
GGAAAAGTAACACAGTAAGAGACTTCACCA	-1.39
TTCAGGAATGCACCCTTTTGACCACACAGC	1.77
TCTTGCCCTTTGGTCTGGAACACAGAGGGA	2.5
ATGGGGCCAGATTGAGAAACACATTCTTAG	-0.973
TGTTGGGATTAAGGAGAAGGCTCCCAAGGT	-1.32
TTCTTTTTTTCTTTTTTTCCCCCTCACTGA	4.2
CATCTGCCACTCATAGAACTGTCGCAGAAA	-1.39
GGGCTAAACATCAAGACAGGTGAGAGAGCT	-1.27
CGCTTGTCTTACGGAAGAATGGAATTCCAG	1.7
GATAGGAGATAAGGGGGTCAGTTCAAAAGA	1.06
CTATGGGAAAACAGGCTCAGCAAAGTCAGG	-1.34
AACACACAAGGCCCACTCCTCCCTCAGGGA	-1.2
AATATCGCTTGTCTTACGGAAGAATGGAAT	1.09
CCAGAATAGCCTCTGCAACTCAGAGACAGG	-1.49
TGAAAAAGGGTTGTGCAAACTTCAGCAGAA	-1.38
TTCACCCCATTTTGTCCCTCCCTGCAGCTG	3.98
AATAGCTGAACTATTTAAGGCCTTTGAAGT	-0.906
ACCAGAGACCTTTGTTCACTTGTTTATCTG	2.97
